Reference: paper PMC4892509, “Binding of the Fkh1 Forkhead Associated Domain to a Phosphopeptide within the Mph1 DNA Helicase Regulates Mating-Type Switching in Budding Yeast” (PLoS Genetics, 2016)
Positions count from the first letter of the chain named. Like-named read-outs stand apart in the source and are kept apart here. Results are given in words; binding and its absence hold for the method and conditions named. For some assays here: Binding seen in cells or lysates may run through a third protein. Some binding calls cover weakened binding; strength is not graded here. For some assays here: Sequences can lack the tags named with a protein.

Protein sequences, listed by entry. Tags and fused reporters are not part of them. Lines headed by an entry give the natural chain unless they say otherwise; changes in a name come on top. Chains listed by the source or under a name are the forms on record and can include a tag or linker. Residues count along the entry.
UniProt P40562: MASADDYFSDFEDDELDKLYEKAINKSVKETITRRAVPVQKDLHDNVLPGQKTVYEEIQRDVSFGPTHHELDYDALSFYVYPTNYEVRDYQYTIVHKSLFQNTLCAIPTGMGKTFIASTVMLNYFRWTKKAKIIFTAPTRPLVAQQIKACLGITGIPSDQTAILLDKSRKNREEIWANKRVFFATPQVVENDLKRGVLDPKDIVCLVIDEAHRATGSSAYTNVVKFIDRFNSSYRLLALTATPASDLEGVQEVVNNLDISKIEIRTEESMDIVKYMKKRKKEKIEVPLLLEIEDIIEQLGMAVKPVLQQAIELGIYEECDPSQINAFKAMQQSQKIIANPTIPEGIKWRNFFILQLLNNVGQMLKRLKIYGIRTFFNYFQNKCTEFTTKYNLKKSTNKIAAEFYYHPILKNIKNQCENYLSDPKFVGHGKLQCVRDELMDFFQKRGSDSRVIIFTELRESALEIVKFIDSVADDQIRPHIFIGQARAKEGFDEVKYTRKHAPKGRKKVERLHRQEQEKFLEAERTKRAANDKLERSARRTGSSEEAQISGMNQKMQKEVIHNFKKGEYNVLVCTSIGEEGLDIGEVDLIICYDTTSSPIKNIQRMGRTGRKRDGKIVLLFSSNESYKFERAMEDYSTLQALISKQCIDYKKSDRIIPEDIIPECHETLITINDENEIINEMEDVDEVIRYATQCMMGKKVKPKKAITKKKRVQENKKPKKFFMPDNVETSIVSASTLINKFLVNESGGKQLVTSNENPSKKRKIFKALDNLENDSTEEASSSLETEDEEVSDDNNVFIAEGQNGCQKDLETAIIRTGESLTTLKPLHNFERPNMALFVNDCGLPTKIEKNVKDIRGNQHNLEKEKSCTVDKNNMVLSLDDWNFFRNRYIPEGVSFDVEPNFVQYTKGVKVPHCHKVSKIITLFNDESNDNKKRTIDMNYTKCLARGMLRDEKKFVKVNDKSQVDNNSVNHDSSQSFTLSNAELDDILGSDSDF
GBD-Mph1(751–810): residues 751-810 of P40562
GBD-Mph1-Ct (amino acids 762–993): residues 762-993 of P40562
GAD-Mph1-Ct (amino acids 762–993) T785D (P40562, form named): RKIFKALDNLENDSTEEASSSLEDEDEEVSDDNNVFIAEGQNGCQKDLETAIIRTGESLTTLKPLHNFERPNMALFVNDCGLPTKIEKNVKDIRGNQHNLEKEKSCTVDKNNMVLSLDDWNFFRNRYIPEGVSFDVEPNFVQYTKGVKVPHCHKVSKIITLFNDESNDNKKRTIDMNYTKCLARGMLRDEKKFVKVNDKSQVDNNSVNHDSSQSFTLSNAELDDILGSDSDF
GAD-Mph1-Ct (amino acids 762–993) T776E (P40562, form named): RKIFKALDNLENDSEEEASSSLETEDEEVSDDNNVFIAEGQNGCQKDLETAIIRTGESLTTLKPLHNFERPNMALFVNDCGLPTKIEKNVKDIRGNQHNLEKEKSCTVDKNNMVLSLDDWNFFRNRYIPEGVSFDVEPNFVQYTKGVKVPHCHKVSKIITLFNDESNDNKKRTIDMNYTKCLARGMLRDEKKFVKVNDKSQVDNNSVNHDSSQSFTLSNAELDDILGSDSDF
GAD-Mph1-Ct (amino acids 762–993) T776E T785E (P40562, form named): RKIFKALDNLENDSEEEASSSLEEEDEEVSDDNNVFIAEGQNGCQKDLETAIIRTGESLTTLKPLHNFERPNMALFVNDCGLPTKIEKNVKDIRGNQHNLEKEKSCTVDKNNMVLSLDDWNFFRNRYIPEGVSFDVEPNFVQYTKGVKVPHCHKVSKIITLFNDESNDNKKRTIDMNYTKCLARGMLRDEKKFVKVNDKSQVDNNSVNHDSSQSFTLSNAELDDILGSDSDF
GAD-Mph1-Ct (amino acids 762–993) T785E (P40562, form named): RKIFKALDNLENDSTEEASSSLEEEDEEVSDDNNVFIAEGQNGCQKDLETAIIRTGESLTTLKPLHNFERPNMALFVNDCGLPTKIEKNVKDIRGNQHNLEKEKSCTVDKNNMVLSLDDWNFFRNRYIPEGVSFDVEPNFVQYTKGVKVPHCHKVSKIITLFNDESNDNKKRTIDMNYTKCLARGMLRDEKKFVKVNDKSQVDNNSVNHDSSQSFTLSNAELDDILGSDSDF
GAD-Mph1-Ct (amino acids 762–993) T776D (P40562, form named): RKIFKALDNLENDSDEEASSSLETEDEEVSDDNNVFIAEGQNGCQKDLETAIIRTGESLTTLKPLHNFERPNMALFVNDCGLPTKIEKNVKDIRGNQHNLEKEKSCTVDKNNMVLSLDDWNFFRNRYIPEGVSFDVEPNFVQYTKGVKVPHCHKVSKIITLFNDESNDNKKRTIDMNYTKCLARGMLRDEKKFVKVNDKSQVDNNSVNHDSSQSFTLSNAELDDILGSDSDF
GBD-Mph1-Ct (amino acids 762–993) T776AT785A (P40562, form named): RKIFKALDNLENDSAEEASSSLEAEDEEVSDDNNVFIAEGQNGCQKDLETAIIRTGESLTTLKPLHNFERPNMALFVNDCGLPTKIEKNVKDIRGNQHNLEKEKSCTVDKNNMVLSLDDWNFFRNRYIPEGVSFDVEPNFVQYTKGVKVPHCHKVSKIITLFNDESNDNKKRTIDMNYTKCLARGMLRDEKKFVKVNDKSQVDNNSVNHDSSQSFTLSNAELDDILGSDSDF
GAD-Mph1-Ct (amino acids 762–993) T776D T785D (P40562, form named): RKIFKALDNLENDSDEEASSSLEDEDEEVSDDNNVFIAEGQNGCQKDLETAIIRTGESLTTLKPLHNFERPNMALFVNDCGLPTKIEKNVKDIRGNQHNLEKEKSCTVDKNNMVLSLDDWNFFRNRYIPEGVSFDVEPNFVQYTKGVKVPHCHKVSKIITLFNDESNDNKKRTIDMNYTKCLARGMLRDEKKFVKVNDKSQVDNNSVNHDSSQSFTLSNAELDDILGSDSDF
GBD-Mph1-Ct (amino acids 762–993) T776A (P40562, form named): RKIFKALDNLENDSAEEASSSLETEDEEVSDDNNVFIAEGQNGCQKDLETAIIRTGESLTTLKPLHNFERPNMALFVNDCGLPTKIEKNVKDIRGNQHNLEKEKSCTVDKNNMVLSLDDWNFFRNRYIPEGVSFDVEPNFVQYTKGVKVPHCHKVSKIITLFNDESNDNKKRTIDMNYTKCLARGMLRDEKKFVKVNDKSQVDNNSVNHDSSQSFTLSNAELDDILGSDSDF
GBD-Mph1-Ct (amino acids 762–993) T785A (P40562, form named): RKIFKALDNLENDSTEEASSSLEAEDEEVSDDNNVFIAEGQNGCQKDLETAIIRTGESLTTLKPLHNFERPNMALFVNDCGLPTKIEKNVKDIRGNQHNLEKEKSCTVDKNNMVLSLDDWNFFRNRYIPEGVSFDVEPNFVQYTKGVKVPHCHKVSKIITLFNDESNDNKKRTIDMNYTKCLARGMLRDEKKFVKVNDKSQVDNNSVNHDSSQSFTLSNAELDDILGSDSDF
UniProt P22336: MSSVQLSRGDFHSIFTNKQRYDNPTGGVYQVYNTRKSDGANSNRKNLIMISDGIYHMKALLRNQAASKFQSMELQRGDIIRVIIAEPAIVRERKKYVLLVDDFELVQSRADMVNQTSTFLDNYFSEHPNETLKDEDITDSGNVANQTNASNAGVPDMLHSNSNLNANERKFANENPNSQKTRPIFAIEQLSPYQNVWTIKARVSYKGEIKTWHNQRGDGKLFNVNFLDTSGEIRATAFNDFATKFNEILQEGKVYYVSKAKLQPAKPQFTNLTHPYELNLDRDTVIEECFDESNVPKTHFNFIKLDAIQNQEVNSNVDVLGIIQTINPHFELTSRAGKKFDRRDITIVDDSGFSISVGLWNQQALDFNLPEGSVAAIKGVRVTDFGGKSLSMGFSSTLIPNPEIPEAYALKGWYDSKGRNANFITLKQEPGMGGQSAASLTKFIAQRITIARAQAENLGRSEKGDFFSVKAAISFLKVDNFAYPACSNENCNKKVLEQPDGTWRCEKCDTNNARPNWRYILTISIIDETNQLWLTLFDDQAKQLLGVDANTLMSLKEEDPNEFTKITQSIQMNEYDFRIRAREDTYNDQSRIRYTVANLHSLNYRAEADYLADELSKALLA

Experiments:
[1] = target: T1, GBD-Fkh1-FHA (amino acids 50–202) (S. cerevisiae) (UniProt P40466); experiment: two-hybrid; directed assays in strain PJ69-4A: GBD-Fkh1 forms as bait, GAD fusions as prey; reporter genes HIS3 and ADE2, growth on media lacking histidine or both adenine and histidine, compared with the GAD alone
T1 sequence: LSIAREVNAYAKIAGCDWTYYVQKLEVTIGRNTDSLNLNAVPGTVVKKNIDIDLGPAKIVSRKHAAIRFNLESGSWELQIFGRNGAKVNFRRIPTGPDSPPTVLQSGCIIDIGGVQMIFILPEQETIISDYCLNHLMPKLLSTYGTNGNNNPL

[2] = target: T2, Fkh1 (endogenous, yeast cell extract) (S. cerevisiae (endogenous in W303-derived yeast)) (UniProt P40466); experiment: co-IP; yeast cell extracts in CoIP buffer (50 mM HEPES pH 7.5, 140 mM NaCl, 1 mM EDTA, 1% TX-100); precipitated with Protein A sepharose-linked anti-Fkh1 antibodies, blotted with anti-FLAG or anti-Fkh1
T2 sequence: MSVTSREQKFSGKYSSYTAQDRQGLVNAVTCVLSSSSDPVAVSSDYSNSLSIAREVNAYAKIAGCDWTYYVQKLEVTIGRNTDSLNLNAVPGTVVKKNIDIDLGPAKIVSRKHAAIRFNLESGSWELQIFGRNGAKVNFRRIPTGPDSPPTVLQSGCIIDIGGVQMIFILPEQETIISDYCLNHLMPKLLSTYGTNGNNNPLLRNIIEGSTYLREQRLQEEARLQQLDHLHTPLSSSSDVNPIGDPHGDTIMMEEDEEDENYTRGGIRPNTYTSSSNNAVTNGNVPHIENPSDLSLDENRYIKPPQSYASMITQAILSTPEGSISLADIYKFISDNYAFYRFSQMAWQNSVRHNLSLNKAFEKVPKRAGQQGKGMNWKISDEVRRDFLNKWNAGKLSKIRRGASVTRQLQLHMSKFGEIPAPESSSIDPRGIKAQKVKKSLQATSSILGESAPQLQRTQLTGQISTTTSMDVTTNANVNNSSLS

[3] = target: T3, GBD-Fkh1-FHA (amino acids 50–202) R80A (S. cerevisiae) (UniProt P40466); experiment: two-hybrid; directed assays in strain PJ69-4A: GBD-Fkh1 forms as bait, GAD fusions as prey; reporter genes HIS3 and ADE2, growth on media lacking histidine or both adenine and histidine, compared with the GAD alone
T3 sequence: T1 sequence with R31A

[4] = target: GBD-Mph1-Ct (amino acids 762–993) T776AT785A (S. cerevisiae) (UniProt P40562); experiment: two-hybrid; directed assays in strain PJ69-4A: GBD-Mph1 regions and mutants as bait, Fkh1-FHA or known Mph1 partners as prey; growth on selective media compared with the GAD alone
[5] = target: T1, GBD-Fkh1-FHA (amino acids 50–202) (S. cerevisiae); experiment: two-hybrid; directed assays in strain PJ69-4A: GBD-Fkh1 forms as bait, GAD fusions as prey; reporter genes HIS3 and ADE2, growth on media lacking histidine or both adenine and histidine, compared with the GAD alone; remark: listed apart in the source
[6] = target: T4, GBD fusion of full-length Fkh1 (S. cerevisiae) (UniProt P40466); experiment: as above
T4 sequence: T2 sequence

[7] = target: GBD-Mph1-Ct (amino acids 762–993) T776A (S. cerevisiae) (UniProt P40562); experiment: two-hybrid; directed assays in strain PJ69-4A: GBD-Mph1 regions and mutants as bait, Fkh1-FHA or known Mph1 partners as prey; growth on selective media compared with the GAD alone
[8] = target: GBD-Mph1(751–810) (S. cerevisiae) (UniProt P40562); experiment: as above
[9] = target: GBD-Mph1-Ct (amino acids 762–993) (S. cerevisiae) (UniProt P40562); experiment: as above
[10] = target: GBD-Mph1-Ct (amino acids 762–993) T785A (S. cerevisiae) (UniProt P40562); experiment: as above
[11] = target: GBD-Mph1-Ct (amino acids 762–993) T776AT785A (S. cerevisiae) (UniProt P40562); experiment: as above; remark: listed apart in the source
[12] = target: Mph1-FLAG (S. cerevisiae) (UniProt P40562); experiment: co-IP; yeast cell extracts in CoIP buffer (50 mM HEPES pH 7.5, 140 mM NaCl, 1 mM EDTA, 1% TX-100); precipitated with ANTI-FLAG M2 Affinity Gel, blotted with anti-FLAG or anti-Fkh1

Q: With “GAD-Mph1-Ct (amino acids 762–993) T785D (from UniProt P40562 762-993) (domain or fragment)” as the molecule, how does the binding [1] read?
A: binds

Q: How did the binding [2] turn out when “mph1-2TA-FLAG (mph1-T776AT785A) (from UniProt P40562 1-993)” was run?
A: no binding

Q: For Mph1-FLAG (from UniProt P40562 1-993), which binding [2] is on record?
A: binds

Q: How did the binding [1] turn out when “GAD-Mph1-Ct (amino acids 762–993) T776E (from UniProt P40562 762-993) (domain or fragment)” was run?
A: binds

Q: For “GAD-Mph1-Ct (amino acids 762–993) T776E T785E (from UniProt P40562 762-993) (domain or fragment)”, which binding [1] is on record?
A: no binding

Q: For “GAD-Mph1-Ct (amino acids 762–993) T785E (from UniProt P40562 762-993) (domain or fragment)”, which binding [1] is on record?
A: binds

Q: Which binding [1] does the source give for “GAD-Mph1-Ct (amino acids 762–993) (from UniProt P40562 762-993) (domain or fragment)” here?
A: binds

Q: What about the binding [3] of the same molecule?
A: no binding

Q: How did the binding [1] turn out when “GAD-Mph1-Ct (amino acids 762–993) T776D (from UniProt P40562 762-993) (domain or fragment)” was run?
A: binds

Q: With “Rfa1 (two-hybrid prey) (from UniProt P22336 1-621)” as the molecule, how does the binding [4] read?
A: binds

Q: How did the binding [1] turn out when “GAD-Mph1-Ct (amino acids 762–993) T776D T785D (from UniProt P40562 762-993) (domain or fragment)” was run?
A: no binding

B1: GAD-Ecm30(1005–1183) (domain or fragment, UniProt Q06673 1005-1183)
chain: SFKYEETFSHELRQFESLLDISIDECEGNTISKPTTDRLGYIRRSRGQSSVSLERTISAGSGVSTPTMALNRTKSNGSGNLMNYFFQNTAQNHFQHLRSSSSSSSITLEKTTSNSSSIRTRPNSHHVAPETNNNNSTNGNSNNSSNGGFSFFKWKWGGNNSNGGSDDTKASQRDPNVST
Q: Which binding [5] does the source give for B1 here?
A: binds

B2: GAD-Gln3(20–189) (domain or fragment, UniProt P18494 20-189)
chain: VHGRSNEEPRQTGDSRSQSSGNTGENEEDIAFASGLNGGTFDSMLEALPDDLYFTDFVSPFTAAATTSVTTKTVKDTTPATNHMDDDIAMFDSLATTQPIDIAASNQQNGEIAQLWDFNVDQFNMTPSNSSGSATISAPNSFTSDIPQYNHGSLGNSVSKSSLFPYNSST
Q: Which binding [5] does the source give for B2 here?
A: binds

B3: GAD-Ure2(84–354) (domain or fragment, UniProt P23202 84-354)
chain: HRQQQQAFSDMSHVEYSRITKFFQEQPLEGYTLFSHRSAPNGFKVAIVLSELGFHYNTIFLDFNLGEHRAPEFVSVNPNARVPALIDHGMDNLSIWESGAILLHLVNKYYKETGNPLLWSDDLADQSQINAWLFFQTSGHAPMIGQALHFRYFHSQKIASAVERYTDEVRRVYGVVEMALAERREALVMELDTENAAAYSAGTTPMSQSRFFDYPVWLVGDKLTIADLAFVPWNNVVDRIGINIKIEFPEVYKWTKHMMRRPAVIKALRGE
Q: B3 was tested. Which binding [5] did it give?
A: binds

B4: GAD-Fdo1 (YMR144W) (98–342) (domain or fragment, UniProt P40214 98-342)
chain: RKEVGTYSSPMDSAYARENMLNVLQSLVTHLNQAVSQIQQLKFKNMILTSNENNIQSRHEVEDNLQKQQFERMKCQFLLERQSLKDQLRKRENKIVKYKQKIIEKNKKLNNLAKVLNQHAISDTSQIDSFSSSVKKTPSSTTTPQEMKSDMLNTLGILATHVLKDEIDDDSGNQTILQLAAGSISNDCNTTELEITCSPEMGRTITHNRPNTKDESIQDSHGNRTLQLPKMKSFSTIDGSIKDIK
Q: Which binding [5] does the source give for B4 here?
A: no binding

Q: And the binding [6]?
A: binds

B5: GAD fusion of Fkh1-FHA (amino acids 50–202) (domain or fragment, UniProt P40466 50-202)
chain: T1 sequence
Q: B5 was tested. Which binding [7] did it give?
A: binds

Q: What about the binding [8] of the same molecule?
A: binds

Q: And the binding [9]?
A: binds

Q: And the binding [10]?
A: binds

Q: And the binding [11]?
A: no binding

B6: Smc5 (two-hybrid prey) (protein, UniProt Q08204 1-1093)
chain: MTSLIDLGRYVERTHHGEDTEPRSKRVKIAKPDLSSFQPGSIIKIRLQDFVTYTLTEFNLSPSLNMIIGPNGSGKSTFVCAVCLGLAGKPEYIGRSKKVEDFIKNGQDVSKIEITLKNSPNVTDIEYIDARDETIKITRIITRSKRRSDYLINDYQVSESVVKTLVAQLNIQLDNLCQFLSQERVEEFARLKSVKLLVETIRSIDASLLDVLDELRELQGNEQSLQKDLDFKKAKIVHLRQESDKLRKSVESLRDFQNKKGEIELHSQLLPYVKVKDHKEKLNIYKEEYERAKANLRAILKDKKPFANTKKTLENQVEELTEKCSLKTDEFLKAKEKINEIFEKLNTIRDEVIKKKNQNEYYRGRTKKLQATIISTKEDFLRSQEILAQTHLPEKSVFEDIDIKRKEIINKEGEIRDLISEIDAKANAINHEMRSIQRQAESKTKSLTTTDKIGILNQDQDLKEVRDAVLMVREHPEMKDKILEPPIMTVSAINAQFAAYLAQCVDYNTSKALTVVDSDSYKLFANPILDKFKVNLRELSSADTTPPVPAETVRDLGFEGYLSDFITGDKRVMKMLCQTSKIHTIPVSRRELTPAQIKKLITPRPNGKILFKRIIHGNRLVDIKQSAYGSKQVFPTDVSIKQTNFYQGSIMSNEQKIRIENEIINLKNEYNDRKSTLDALSNQKSGYRHELSELASKNDDINREAHQLNEIRKKYTMRKSTIETLREKLDQLKREARKDVSQKIKDIDDQIQQLLLKQRHLLSKMASSMKSLKNCQKELISTQILQFEAQNMDVSMNDVIGFFNEREADLKSQYEDKKKFVKEMRDTPEFQSWMREIRSYDQDTKEKLNKVAEKYEEEGNFNLSFVQDVLDKLESEIAMVNHDESAVTILDQVTAELRELEHTVPQQSKDLETIKAKLKEDHAVLEPKLDDIVSKISARFARLFNNVGSAGAVRLEKPKDYAEWKIEIMVKFRDNAPLKKLDSHTQSGGERAVSTVLYMIALQEFTSAPFRVVDEINQGMDSRNERIVHKAMVENACAENTSQYFLITPKLLTGLHYHEKMRIHCVMAGSWIPNPSEDPKMIHFGETSNYSFD
Q: How did the binding [11] turn out when B6 was run?
A: binds

B7: Fkh1 (endogenous, yeast cell extract) (protein, UniProt P40466 1-484)
chain: T2 sequence
Q: For B7, which binding [12] is on record?
A: binds
